PubChem BioAssay AID485364 (National Center for Advancing Translational Sciences (NCATS), 2010)
Values joined by “and” are separate entries in the source; they are usually repeats but may differ in a detail not shown here. Identical values can stand only once. The campaign covered roughly 360,000 compounds. About 11,000 (3.1%) were called active. This list was built around the results that the source calls inconclusive (neither active nor inactive); the mix of calls is not that of the screen. Calls come from the whole dose curve; as a rule, active = well fitted inhibition curve with a large enough effect; inconclusive = small, poorly fitted or top-dose-only effect; inactive = no such curve, though single readings can be large or run the other way. Potencies beside an inconclusive call are fits to weak or partial responses and may not hold up.

target: Schistosoma mansoni thioredoxin glutathione reductase (TGR) (UniProt Q962Y6); test: qHTS Assay for the Inhibitors of Schistosoma Mansoni Peroxiredoxins; conditions: purified TGR, DTNB reduction, TNB absorbance 405 nm; series mostly up to 114 µM; note: nearly all actives have a fitted effect of over 60% in size
How it was run: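 Kinetic colorimetric format: TGR-catalysed, NADPH-driven DTNB reduction monitored via TNB absorbance. Enzyme dispensed at 20 nM; compound exposure 15 min at room temperature before reaction start.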
Potency is the fitted concentration of half-maximal effect; tags give direction and shape of the fitted curve.

SMILES	Potency
CN1CCc2c(OCC(=O)N3N=C(c4cccs4)CC3c3ccc(F)cc3)cccc2C1=O (stereo not given)	inconclusive: 39.8 µM [inhibitor, partial curve]
O=[N+]([O-])c1ccc(OCC2CC(c3ccccc3)=NO2)cc1 (stereo not given)	inactive
O=c1c2c3c(sc2n(Cc2cc(=O)n4ccccc4n2)c(=O)n1-c1ccccc1)CCC3	inactive
CCOc1ccc(N2C(=O)CC(=O)NC2=O)cc1	inconclusive: 0.631 µM [inhibitor, full curve, poor fit]
CC1CCN(C(=O)c2[nH]cnc2C(=O)Nc2ccc(Cl)cc2)CC1	inactive
CCOc1ccc2[nH]c(=O)c(CN(Cc3ccco3)C(=O)c3cccc(F)c3)cc2c1	inconclusive: 44.7 µM [inhibitor, partial curve]
COc1ccc(S(=O)(=O)Cc2ccc(C(=O)NCc3ccc(C)cc3)o2)cc1	inactive
O=C(O)CCc1ccc(-c2cccs2)n1CC(=O)Nc1ccccc1C(F)(F)F	inconclusive: 50.1 µM [inhibitor, partial curve] and inconclusive: 39.8 µM [inhibitor, partial curve]
COC(=O)c1cccc(C23CC4(C2)[C@H](CN(Cc2ccc(C(F)(F)F)cc2)[C@@H]4c2ccccc2)C3c2ccc(Cl)nc2)c1 (stereo not given in full)	inconclusive: 44.7 µM [inhibitor, partial curve]
CCN1C=C(Cc2ccc(F)cc2)C2=C(C1)C(c1ccc(F)cc1)C(C#N)=C(N)O2 (stereo not given)	inconclusive: 50.1 µM [inhibitor, partial curve, poor fit]
N#Cc1cc2c([nH]c1=S)CCCCCC2	inconclusive: 89.1 µM [inhibitor, single point]
O=C(COC(=O)CC1CC2CCC1C2)Nc1cc([N+](=O)[O-])ccc1F (stereo not given)	inconclusive: 22.4 µM [inhibitor, single point]
Cc1ccc(-n2c(O)c(C=Nc3ccc(S(N)(=O)=O)cc3)c(=O)[nH]c2=O)cc1	inconclusive: 14.1 µM [inhibitor, partial curve]
COCCN(CCOC)Cc1c(O)ccc2c1O/C(=C\c1ccco1)C2=O	active: 3.55 µM
Cc1cc(-c2nnc(CCC(=O)N3CCN(Cc4cccnc4)CC3)o2)c(C)o1	inconclusive: 89.1 µM [inhibitor, single point]
CC(C)(C)c1nnc2sc(SCC(=O)NCc3ccco3)nn2c1=O	inconclusive: 28.2 µM [inhibitor, full curve, poor fit]
COc1ccc(OC)c(C(=O)CSc2nnc(-c3cccnc3)n2C)c1	inconclusive: 89.1 µM [inhibitor, single point]
O=C(CSc1nnc(-c2ccco2)c(-c2ccco2)n1)Nc1ccccc1	active: 1.78 µM
O=c1[nH]c(=O)n(Cc2ccccc2)c2nc(-c3ccco3)cc(C(F)(F)F)c12	inconclusive: 44.7 µM [inhibitor, partial curve]
COC(=O)C(NS(=O)(=O)c1ccc(N2CCCC2=O)cc1)c1ccccc1 (stereo not given)	inactive
O=C(O)C1Nc2c(C(F)(F)F)ccc(Cl)c2C2C=CCC12 (stereo not given)	inconclusive: 3.16 µM [inhibitor, full curve]
COC(=O)c1[nH]c(C)c(/C(O)=C2\C(=O)C(=O)N(CCCN3CCOCC3)C2c2ccccn2)c1C (stereo not given)	inconclusive: 31.6 µM [inhibitor, partial curve]
N#CC1=C(N)Oc2ccc3ccccc3c2C1c1cccnc1 (stereo not given)	active: 39.8 µM
Cc1cc(C)c(S(=O)(=O)N2CCOC2CNC(=O)C(=O)NCCCN2CCOCC2)c(C)c1 (stereo not given)	inconclusive: 25.1 µM [inhibitor, full curve]

SMILES	Potency
CCOC(=O)C1=C(C)NC(SC)=NC1c1ccc(OC)cc1 (stereo not given)	inconclusive: 39.8 µM [inhibitor, single point]
Cc1ccc(C)c(CN2C(=O)CSc3ccc(C(=O)NCCc4ccc(Cl)cc4)cc32)c1	inactive
CC1=C([N+](=O)[O-])C(c2cccc(Br)c2)C2=C(N1)c1ccccc1C2=O (stereo not given)	inconclusive: 15.8 µM [inhibitor, full curve, poor fit]
CCN(CCn1cccn1)C(=O)CC1C(=O)NCCN1Cc1ccc(F)c(F)c1 (stereo not given)	inconclusive: 35.5 µM [inhibitor, partial curve]
O=C(O)C1(c2ccccc2)CCN(S(=O)(=O)c2ccc(Br)cc2)CC1	active: 89.1 µM
Cc1cc(O)cc(O)c1C(=O)Cc1cscn1	inconclusive: 44.7 µM [inhibitor, partial curve]
O=C(CSc1nncc2ccccc12)N1CCOCC1	inconclusive: 39.8 µM [inhibitor, single point]
COc1ccc(-c2ccc(SCc3cccnc3)nn2)cc1OC	inactive
O=C(O)/C=C/c1ccc(S(=O)(=O)Nc2ccc(C(=O)NCC(=O)O)cc2)cc1	inconclusive: 50.1 µM [inhibitor, partial curve]
O=C(CSc1nnc(-c2ccco2)n1Cc1ccccc1)NC(=O)NCc1ccco1	inconclusive: 50.1 µM [inhibitor, partial curve]
COC(=O)c1ccc(NC(=O)CSc2nnc(-c3ccncc3)n2C)cc1	inconclusive: 0.891 µM [inhibitor, full curve, poor fit]
CCOP(=O)(Cc1cc(C(C)=O)c(C)o1)OCC	active: 39.8 µM
Cc1cc(NC(=O)c2ccco2)cc(-c2nc3cc(Cl)ccc3o2)c1O	inactive
O=C(/C=C/c1ccco1)NC1=NCCS1	active: 44.7 µM
Cc1ccc(CNC(=O)C2CCC(=O)N(CC3CCCCC3)C2)o1 (stereo not given)	active: 28.2 µM
O=C1ON=C(c2ccc([N+](=O)[O-])cc2)/C1=C/c1ccccc1O	inconclusive: 0.112 µM [inhibitor, full curve, poor fit]
Cc1ccc2c(NC(=S)NC(=O)c3ccccc3)cccc2n1	inconclusive: 12.6 µM [inhibitor, full curve]
Cn1cccc1Cc1nnc(SCC(=O)Nc2ccc(F)cc2)n1-c1ccc(F)cc1	inconclusive: 35.5 µM [inhibitor, full curve]
COC(=O)Cc1ccc(NC(=S)NC2CC2)cc1	active: 44.7 µM
CN(C)S(=O)(=O)c1cccc(NC(=S)Nc2cccc3cnccc23)c1	active: 10 µM
COc1ccc(C(=O)c2c(N)c(-c3nc(-c4ccccc4)cs3)c3ccccn23)cc1	inactive
CC(/C=C/c1ccccc1)=N/NC(=O)c1cnccn1	inconclusive: 35.5 µM [inhibitor, partial curve]
O=C(NNC(=O)c1cccs1)c1cccc(F)c1	inactive
CC1(C)C(=O)Nc2ccccc2N1C(=O)COc1cccnc1[N+](=O)[O-]	inconclusive: 3.98 µM [inhibitor, single point]

SMILES	Potency
COc1ccccc1NS(=O)(=O)c1cccc(C(=O)N/N=C/c2ccc(C)o2)c1	inconclusive: 50.1 µM [inhibitor, partial curve]
CC(=O)Nc1ccc(-c2cn3cc(C)ccc3n2)cc1	inactive
CSCC(=O)Nc1cc(C)on1	inactive
CN(C(=O)c1ccc(S(=O)(=O)c2cccc(Cl)c2)c([N+](=O)[O-])c1)C1CCCCC1	inconclusive: 7.08 µM [inhibitor, full curve, poor fit]
Cc1sc2ncnc(Sc3nnnn3-c3ccccc3)c2c1C	inconclusive: 14.1 µM [inhibitor, full curve]
CCOC(=O)N1CCC(N2CCN(S(=O)(=O)c3ccc(Cl)cc3)CC2)CC1	inconclusive: 79.4 µM [inhibitor, partial curve]
COc1c(C)cc(C(=O)C2CCCN(C3CCOCC3)C2)cc1C (stereo not given)	active: 12.6 µM
Oc1ccc2ccccc2c1C=NC1CCCCC1	active: 39.8 µM
O=C(c1ccccc1)c1c[nH]c(C(=O)NNc2ccccc2)c1	inactive
Cc1ccc(C2(c3noc(CN4C[C@@H](C)O[C@@H](C)C4)n3)CCCC2)cc1	inactive
COC(=O)Cn1c(CCC(=O)O)ccc1-c1ccccc1	inconclusive: 0.282 µM [inhibitor, full curve, poor fit]
CC12CCC(C(=O)NCc3ccc4c(c3)OCO4)(OC1=O)C2(C)C (stereo not given)	inconclusive: 0.224 µM [inhibitor, full curve, poor fit]
CC(C)(C)NC(=O)C(c1ccncc1)N(C(=O)Cn1nnc(-c2ccc(F)cc2)n1)c1ccccc1 (stereo not given)	inconclusive: 44.7 µM [inhibitor, partial curve]
CCC(C)c1ccccc1NC(=O)C(C)NCCN(C)C (stereo not given)	active: 39.8 µM
CCOc1ccc(NC(=S)N2CCCC2)cc1	inconclusive: 0.126 µM [inhibitor, full curve, poor fit]
Cn1c(=O)cc(SCC(=O)N2CCN(C(=O)c3ccco3)CC2)c2ccccc21	inconclusive: 50.1 µM [inhibitor, partial curve]
COCCNC(=O)c1cccc(S(=O)(=O)N2CC3(C)CC2CC(C)(C)C3)c1 (stereo not given)	active: 79.4 µM
O=C(Nc1cc(Sc2ccccn2)cc([N+](=O)[O-])c1)c1cccc(Cl)c1	inactive
Cc1[nH]n(C(N)=S)c(=O)c1C(c1ccccc1)C(C#N)C#N (stereo not given)	inconclusive: 56.2 µM [inhibitor, partial curve]
COc1cc(/C=C2\CC/C(=C\c3cc(OC)c(OC)c(OC)c3)C2=O)cc(OC)c1OC	inactive
O=C(NC(=S)Nc1ccc(O)cc1)c1ccccc1Cl	inconclusive: 5.01 µM [inhibitor, partial curve, poor fit]
CNC(=O)COC(=O)/C=C/c1ccco1	active: 25.1 µM
